Measured values from the supplement of paper PMC8183993.
Values joined by “and” are separate entries in the source; they are usually repeats but may differ in a detail not shown here. Equal entries are not always repeated. Structures can show the parent of a compound that is named as a salt. ± gives the standard deviation of the averaged measurements. In all, about 3,100 compounds were measured (“mean cytoplasmic OPP incorporation (global translation) relative to DMSO”: median about 100, lowest 2% from about 56 on). The list shows a part of the results.

The compounds below were run on U2OS (assay: mean cytoplasmic OPP incorporation (global translation) relative to DMSO (% of DMSO); higher = more protein synthesis). Details: 10 µM; 24 h.
Experimental: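 Primary image-based screen in U2OS cells: compounds at 10 uM for 24 h, then a 1 h o-propargyl-puromycin (OPP) pulse, click labelling, and high-throughput microscopy. Mean cytoplasmic OPP intensity and nuclei count were normalised to DMSO wells within each plate (DMSO = 100) and averaged over triplicate plates.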

SMILES	mean cytoplasmic OPP incorporation
CCN(CC)CCNC(=O)c1cc(Cl)c(N)cc1OC [Metoclopramide monohydrochloride]	104
CCOc1ccc2ccccc2c1C(=O)N[C@@H]1C(=O)N2[C@@H]1SC(C)(C)[C@@H]2C(=O)O [Nafcillin sodium salt monohydrate]	103
CN(C)C/C=C(/c1ccc(Br)cc1)c1cccnc1 [Zimelidine dihydrochloride monohydrate]	93.4
CN(C)C/C=C(/c1ccc(Br)cc1)c1cccnc1 [Zimelidine dihydrochloride]	98.4
CC(C)(CO)C(O)C(=O)NCCCO (stereo not drawn) [Panthenol (D)]	101
COc1cc2c(Oc3ccc(NC(=O)C4(C(=O)Nc5ccc(F)cc5)CC4)cc3F)ccnc2cc1OCCCN1CCOCC1	92.5
CC1=CC(=O)C(C(C)C)=CC1=O [Thymoquinone]	94
O=C(/C=C/c1ccc(O)cc1)CC(=O)/C=C/c1ccc(O)cc1 [bis-demethoxycurcumin]	121
C[S+]([O-])c1ccc(-c2nc(-c3ccc(F)cc3)c(-c3ccncc3)[nH]2)cc1 (stereo not drawn)	100 and 96.3
COc1ccccc1Oc1c(NS(=O)(=O)c2ccc(C(C)(C)C)cc2)nc(-c2ncccn2)nc1OCCO [Bosentan]	115
Nc1ccccc1S(N)(=O)=O [2-Aminobenzenesulfonamide]	107
CN(C)CCC=C1c2ccccc2COc2ccccc21 [Doxepin hydrochloride]	90.4 ± 1.3
CN1CCC[C@@H]1Cc1c[nH]c2ccc(CCS(=O)(=O)c3ccccc3)cc12 [Eletriptan hydrobromide]	109
CC(C)[N+](C)(CCOC(=O)C1c2ccccc2Oc2ccccc21)C(C)C [Propantheline bromide]	105
COc1ccc(NS(=O)(=O)c2sc3ccc(Cl)cc3c2C)cc1N1CCNCC1	106
COc1ccc(-c2cc(=S)ss2)cc1 [Anethole-trithione]	86.1
COc1ccc(-c2cc(=S)ss2)cc1 [Anethole trithione]	107
C#CCN[C@@H]1CCc2ccccc21 [Rasagiline mesylate]	98.3
C1COC(NC(C2CC2)C2CC2)=N1 [Rilmenidine hemifumarate]	97.6
C1COC(NC(C2CC2)C2CC2)=N1 [Rilmenidine]	108
N#C/C(=C\c1ccc(O)c(O)c1)C(=O)OCCc1cccs1	97.3
COc1cc(OC2CCN(C)CC2)ccc1Nc1ncc2c(n1)n(C1CCCC1)c(=O)n2C	112
CCOc1nc2cccc(C(=O)OCc3oc(=O)oc3C)c2n1Cc1ccc(-c2ccccc2-c2noc(=O)[nH]2)cc1 [Azilsartan Medoxomil (TAK-491)]	101
OC[C@H]1O[C@@H](n2cnc3c(NC4CCCC4)ncnc32)[C@H](O)[C@@H]1O [N6-Cyclopentyladenosine]	105
O=C(O)c1cn(C2CC2)c2cc(N3CCNCC3)c(F)cc2c1=O [Ciprofloxacin hydrochloride monohydrate]	102
CC1(C)CCC(C)(C)c2cc(C3(c4ccc(C(=O)O)cc4)OCCO3)ccc21	107

SMILES	mean cytoplasmic OPP incorporation
CC(C)NCC(O)COc1ccc(CCOCC2CC2)cc1 (stereo not drawn) [Betaxolol hydrochloride]	101 ± 3.1
Cc1c(C(=O)NN2CCCCC2)nn(-c2ccc(Cl)cc2Cl)c1-c1ccc(I)cc1	98.1
CCc1nc(N)nc(N)c1-c1ccc(Cl)cc1 [Pyrimethamine]	77.5
CC(=O)[C@@]1(O)CC[C@H]2[C@@H]3C[C@H](C)C4=CC(=O)C=C[C@]4(C)[C@@]3(F)[C@@H](O)C[C@@]21C [Fluorometholone]	89.7
CCN(C(=O)c1c(O)c2c(Cl)cccc2n(C)c1=O)c1ccccc1	102
CN1CC(=O)N2[C@H](c3ccc4c(c3)OCO4)c3[nH]c4ccccc4c3C[C@@H]2C1=O [Tadalafil (Cialis)]	104
C1CCC(C(CC2CCCCN2)C2CCCCC2)CC1 (stereo not drawn) [Perhexiline maleate]	53
CC(NC(=O)c1ccccc1/N=C/c1c(O)ccc2ccccc12)c1ccccc1 (stereo not drawn) [Sirtinol]	95.78 ± 0.67
Cc1cccc(-c2[nH]c(C(C)(C)C)nc2-c2ccc3c(c2)OCO3)n1	96.4
NC1CCN(c2cccc(Cl)n2)CC1	113
CC(C)(OCc1nn(Cc2ccccc2)c2ccccc12)C(=O)O [Bindarit]	99.9
Cc1ccc(S(=O)(=O)N[C@@H](Cc2ccccc2)C(=O)CCl)cc1	90.5
COc1cc(C(=O)NCc2ccc(OCCN(C)C)cc2)cc(OC)c1OC [Trimethobenzamide hydrochloride]	102
CCCN1CCCC[C@H]1C(=O)Nc1c(C)cccc1C [Ropivacaine HCl]	97.5
C[C@](N)(Cc1ccc(O)c(O)c1)C(=O)O [Methyldopa (L,-)]	108
COC(=O)/C=C/c1cccc(N(Cc2ccc(-c3ccc(N(C)C)cc3)cc2)C(=O)C2CCCCC2)c1 [Fexaramine]	101
c1cnc(N2CCN(Cc3ccc4c(c3)OCO4)CC2)nc1 [Piribedil hydrochloride]	92.5
c1cnc(N2CCN(Cc3ccc4c(c3)OCO4)CC2)nc1 [Piribedil]	97.1
CCOC(=O)c1cnc2ccc(-c3cncc(NS(=O)(=O)c4ccccc4)c3)cn12	106
Clc1ccc(C(Cn2ccnc2)OCc2ccsc2Cl)c(Cl)c1 (stereo not drawn) [Tioconazole]	101
CCCC1C(=O)N2C(N(C)C)=Nc3ccc(C)cc3N2C1=O (stereo not drawn) [Azapropazone]	93.9
O=C(O)CNC(=O)C(CS)Cc1ccccc1 (racemic) [DL-Thiorphan]	101
O=C(O)CNC(=O)C(CS)Cc1ccccc1 (racemic) [Thiorphan]	99.5
COc1cc2c(cc1OC)CC(=O)N(CCCN(C)C[C@H]1Cc3cc(OC)c(OC)cc31)CC2 [Ivabradine HCl (Procoralan)]	106
C[C@H]1c2cccc(O)c2C(=O)C2=C(O)[C@]3(O)C(=O)C(C(N)=O)=C(O)[C@@H](N(C)C)[C@@H]3[C@@H](O)[C@@H]21 [Doxycycline hydrochloride]	107
C[C@H]1c2cccc(O)c2C(=O)C2=C(O)[C@]3(O)C(=O)C(C(N)=O)=C(O)[C@@H](N(C)C)[C@@H]3[C@@H](O)[C@@H]21 [Doxycycline HCl]	98.4

SMILES	mean cytoplasmic OPP incorporation
N[C@@H](CSC(c1ccccc1)(c1ccccc1)c1ccccc1)C(=O)O [S-Trityl-L-cysteine]	97.9
Cc1c(C(=O)NN2CCCCC2)nn(-c2ccc(Cl)cc2Cl)c1-c1ccc(Cl)cc1	109
O=C(CCCN1C(=O)c2cccc3cccc(c23)C1=O)NO [Nullscript]	97.6
CSc1cc2c(cc1C(F)(F)F)N(C(=O)Nc1cccnc1)CC2	101
O=C(O)C(=O)O.[NH-][C@@H]1CCCC[C@H]1[NH-].[Pt+2] [Oxaliplatin]	87.6
CC(C)C(=O)Oc1ccc(CO)cc1[C@H](CCN(C(C)C)C(C)C)c1ccccc1 [Fesoterodine fumarate (Toviaz)]	97.5
Cc1nn(-c2ccccc2)c(C)c1C=NN1CCN(Cc2ccccc2)CC1	105
Cc1cc2nc3c(=O)[nH]c(=O)nc-3n(C)c2cc1C=O	101
Cc1ccc(NC(=O)c2ccc(CN3CCN(C)CC3)cc2)cc1Nc1nccc(-c2cccnc2)n1 [Imatinib (STI571)]	124
Cc1ccc(NC(=O)c2ccc(CN3CCN(C)CC3)cc2)cc1Nc1nccc(-c2cccnc2)n1 [Imatinib]	120
Cc1ccc(NC(=O)c2ccc(CN3CCN(C)CC3)cc2)cc1Nc1nccc(-c2cccnc2)n1 [Imatinib mesylate]	121 ± 11
Cc1ccc(NC(=O)c2ccc(CN3CCN(C)CC3)cc2)cc1Nc1nccc(-c2cccnc2)n1 [Imatinib Mesylate]	130
N=C(N)c1ccc(N2CCN(C3CCN(CC(=O)O)CC3)CC2)cc1	99.3
CCOC(=O)O[C@]1(C(=O)OCCl)CC[C@H]2[C@@H]3CCC4=CC(=O)C=C[C@]4(C)[C@H]3[C@@H](O)C[C@@]21C [Loteprednol etabonate]	122
CCc1cc2c(cc1N1CCC(N3CCOCC3)CC1)C(C)(C)c1[nH]c3cc(C#N)ccc3c1C2=O	106
COc1ccc2c(c1)c(CC(=O)O)c(C)n2C(=O)c1ccc(Cl)cc1 [Indomethacin]	87.76 ± 0.71
Nc1nc2ccc(OC(F)(F)F)cc2s1 [Riluzole hydrochloride]	95.4 ± 1.5
Nc1nc2ccc(OC(F)(F)F)cc2s1 [Riluzole]	97.7
CN1CCC(=C2c3ccccc3CCc3cccnc32)CC1 [Azatadine dimaleate]	103
CNC(=O)c1cc(Oc2ccc(NC(=O)Nc3cc(C(C)(C)C)nn3-c3ccc4ncccc4c3)c(F)c2)ccn1 [DCC-2036 (Rebastinib)]	106
C[C@]1(O)C[C@@H](c2nc(-c3ccc4ccc(-c5ccccc5)nc4c3)c3c(N)nccn32)C1 [Linsitinib (OSI-906)]	104
C[C@]1(O)C[C@@H](c2nc(-c3ccc4ccc(-c5ccccc5)nc4c3)c3c(N)nccn32)C1 [OSI-906 (Linsitinib)]	104
O=C(C1CCCCC1)N1CC(=O)N2CCc3ccccc3C2C1 (stereo not drawn) [Praziquantel]	103
C[C@@H]1CCO[C@H]2Cn3cc(C(=O)NCc4ccc(F)cc4F)c(=O)c(O)c3C(=O)N12	108
C(=C\c1ccccc1)/CN1CCN(C(c2ccccc2)c2ccccc2)CC1 [Cinnarizine]	108
CCOC(=O)O[C@]1(C(=O)COC(=O)CC)CC[C@H]2[C@@H]3CCC4=CC(=O)C=C[C@]4(C)[C@H]3[C@@H](O)C[C@@]21C [Prednicarbate]	117
